In PubChem BioAssay AID1347073 (National Center for Advancing Translational Sciences (NCATS), 2019):
Screen size: about 45,000 compounds; about 200 (0.44%) were called active. Not shown: some 7% with an inconclusive outcome. The call rests on the fitted dose curve; in most records, active means well fitted activation curve with a large enough effect; inconclusive means small, poorly fitted or top-dose-only effect; inactive means no such curve, though single readings can be large or run the other way. This is one part of the list.

assay: qHTS of TDP-43 Inhibitors: NCGC Sytravon Library Screen; settings: yeast TDP-43 toxicity rescue, BacTiter-Glo growth, 24 h; series mostly up to 46.1 µM; growth rescue (activation): at the top concentration; further: 0% is about no effect; nearly all actives have a fitted effect of over 55% in size
Outline: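 TDP-43-expressing yeast, pregrown in raffinose, seeded at OD600 0.02 in galactose medium with compound for 24 hr at 30 deg C. Growth read by BacTiter-Glo luminescence, so rescue of toxicity appears as activation.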

Question: With `COCCNc1nc2nonc2nc1N1CCCC1c1nccs1` (stereo unspecified) as the compound, how does the “growth rescue (activation)” value read?
Answer: inactive: 9.4%

Question: With `CC[n+]1c(/C=C/c2cc([N+](=O)[O-])ccc2O)ccc2ccccc21` as the compound, how does the “growth rescue (activation)” value read?
Answer: inactive: -10.6%

Question: For `CC(C)N1CCN(Cc2ccc3nsnc3c2)CC1CCO` (stereo unspecified), which “growth rescue (activation)” value is on record?
Answer: inactive: -1.28%

Question: For `CCOc1c(O)ccc(C2NC(=O)N(C)C(C)=C2C(=O)OC)c1[N+](=O)[O-]` (stereo unspecified), which “growth rescue (activation)” value is on record?
Answer: inactive: -13.8%

Question: With `Cc1cc(C(=O)NP(=O)(N2CCOCC2)N2CCOCC2)c(C)n1-c1ccc(Br)cc1` as the compound, how does the “growth rescue (activation)” value read?
Answer: inactive: -1.81%

Question: With `CN(C(=O)c1ccc2c(=O)n3c(nc2c1)CCCCC3)c1cccc(Cl)c1` as the compound, how does the “growth rescue (activation)” value read?
Answer: inactive: 6.98%

Question: Which “growth rescue (activation)” value does the source give for `COc1ccc(CC(=O)OCc2cc3ccccc3[nH]c2=O)cc1` here?
Answer: inactive: 12.1%

Question: Which “growth rescue (activation)” value does the source give for `NS(=O)(=O)c1ccc(NC(=O)c2ccc(OCC3CCCO3)cc2)cc1` (stereo unspecified) here?
Answer: inactive: 12.8%

Question: With `CCN(CC)c1ccc(Nc2cc3n(c(=O)n2)CCc2cc(OC)c(OC)cc2-3)cc1` as the compound, how does the “growth rescue (activation)” value read?
Answer: inactive: 7.53%

Question: With `CC(=O)N1CCc2cc(NC(=O)C3(C)CCN3Cc3ccccc3OC(F)F)ccc21` (stereo unspecified) as the compound, how does the “growth rescue (activation)” value read?
Answer: inactive: 9.52%

Question: For `CCN(Cc1ccncc1)Cc1cn[nH]c1-c1cc(OC)c(OC)c(OC)c1`, which “growth rescue (activation)” value is on record?
Answer: inactive: -3.65%

Question: With `CCc1nc2ccc(C(=O)NCCCn3ccnc3)cn2c1N(C)C(=O)c1cccc(OC)c1` as the compound, how does the “growth rescue (activation)” value read?
Answer: inactive: 4.31%

Question: With `CC1(C(=O)NS(=O)(=O)c2cccc(F)c2)CCN1C(=O)c1ccccc1` (stereo unspecified) as the compound, how does the “growth rescue (activation)” value read?
Answer: inactive: -16.8%

Question: With `O=C(Nn1cnnc1)c1ccc([N+](=O)[O-])cc1` as the compound, how does the “growth rescue (activation)” value read?
Answer: inactive: 4.23%

Question: For `Cc1cccc(OCC(=O)NC(=S)Nc2ccccc2N2CCOCC2)c1`, which “growth rescue (activation)” value is on record?
Answer: inactive: 13.8%

Question: For `Clc1cc(-c2ccc(/C=N/n3cnnc3)o2)ccc1Br`, which “growth rescue (activation)” value is on record?
Answer: inactive: -1.78%

Question: Which “growth rescue (activation)” value does the source give for `O=C(COc1ccc2c(c1)OCO2)Nc1ccc2c(c1)oc1ccccc12` here?
Answer: inactive: -9.08%

Question: Which “growth rescue (activation)” value does the source give for `O=C(NCCC(F)(F)F)C1Cc2c(-c3ccccc3Oc3ccccc3)ccnc2O1` (stereo unspecified) here?
Answer: inactive: 24.7%

Question: With `CC(C)(C)C(=O)Cn1c(=O)n(CCCCCC(=O)NCc2ccc3c(c2)OCO3)c(=O)c2sccc21` as the compound, how does the “growth rescue (activation)” value read?
Answer: inactive: 3.9%

Question: Which “growth rescue (activation)” value does the source give for `Cc1cc(Oc2nc3c(C)cccn3c(=O)c2/C=C(\C#N)S(=O)(=O)c2ccccc2)ccc1Cl` here?
Answer: inactive: 6.2%

Question: For `Cc1cc(C)c(OCC(=O)N(Cc2ccc(N(C)C)cc2)C2CCS(=O)(=O)C2)c(C)c1` (stereo unspecified), which “growth rescue (activation)” value is on record?
Answer: inactive: -14.3%

Question: Which “growth rescue (activation)” value does the source give for `Cc1c(NC(=O)Nc2cccc(C(F)(F)F)c2)c(=O)n(-c2ccccc2)n1C` here?
Answer: inactive: 15.4%

Question: With `CSc1ncnc2sc(C)c(C)c12` as the compound, how does the “growth rescue (activation)” value read?
Answer: inactive: -2.13%

Question: Which “growth rescue (activation)” value does the source give for `Cc1nc2ccc(NC(=S)NCc3ccccc3)cc2nc1C` here?
Answer: inactive: 12.3%

Question: With `Cc1ccccc1SCC(=O)NCCCn1ccnc1` as the compound, how does the “growth rescue (activation)” value read?
Answer: inactive: 5.44%

Question: With `COCCNC(=O)CSc1cc(=O)n(C)c2cc(Cl)ccc12` as the compound, how does the “growth rescue (activation)” value read?
Answer: inactive: 3.91%

Question: Which “growth rescue (activation)” value does the source give for `CN(C)CCOC(=O)NCC12CC3CC(CC(C3)C1)C2` here?
Answer: inactive: 14.3%

Question: With `COCCN1C[C@@H](CO)O[C@@H](n2cnc3c(NCC(C)C)ncnc32)C1` as the compound, how does the “growth rescue (activation)” value read?
Answer: inactive: 2.98%

Question: With `CCC(=O)Nc1ccc(NC(=O)/C=C/c2ccc(Cl)cc2)cc1` as the compound, how does the “growth rescue (activation)” value read?
Answer: inactive: -0.295%

Question: For `CC(Cc1cccs1)NC(=O)c1cccs1` (stereo unspecified), which “growth rescue (activation)” value is on record?
Answer: inactive: 6.97%

Question: Which “growth rescue (activation)” value does the source give for `CCc1ccc(C(O)c2ncc(-c3ccccc3Cl)[nH]2)cc1` (stereo unspecified) here?
Answer: inactive: 6.73%

Question: For `CNc1nc(NCCCN2CCCC2=O)c2sccc2n1`, which “growth rescue (activation)” value is on record?
Answer: inactive: 17%

Question: Which “growth rescue (activation)” value does the source give for `Cc1ccc(C)c(NC(=S)N2CCC(NC(=O)c3cccc(F)c3)CC2)c1` here?
Answer: inactive: 10.2%

Question: For `Cc1ccc2[nH]c(C)c(CCNC(=O)c3cc4cc([N+](=O)[O-])ccc4oc3=O)c2c1`, which “growth rescue (activation)” value is on record?
Answer: inactive: -3.58%

Question: Which “growth rescue (activation)” value does the source give for `O=C(N/N=C1\CC2CC=CC12)c1ccc(O)cc1` (stereo unspecified) here?
Answer: inactive: -13.2%

Question: With `S=C(NCc1cccnc1)Nc1cccc2ccccc12` as the compound, how does the “growth rescue (activation)” value read?
Answer: inactive: 6.82%

Question: With `COc1ccccc1OCc1ccc(C(=O)N2CCCCC2)o1` as the compound, how does the “growth rescue (activation)” value read?
Answer: inactive: 12%

Question: Which “growth rescue (activation)” value does the source give for `Cc1ccc2oc(-c3cc(NC(=O)c4ncn[nH]4)ccc3O)nc2c1` here?
Answer: inactive: 23.3%

Question: With `Cc1ccc(S(=O)(=O)NCCC(=O)OCC(=O)Nc2ccccc2Cl)cc1` as the compound, how does the “growth rescue (activation)” value read?
Answer: inactive: 3.55%

Question: With `O=C(CSc1ccc([N+](=O)[O-])cn1)Nc1ccc(N2CCOCC2)cc1` as the compound, how does the “growth rescue (activation)” value read?
Answer: inactive: 4.15%

Question: Which “growth rescue (activation)” value does the source give for `Cc1cc(C(=O)Cn2ncc(Cl)c(Cl)c2=O)c(C)n1CC(F)(F)F` here?
Answer: inactive: -5.78%

Question: With `O=C(COC(=O)Cn1ccc(=O)[nH]c1=O)Nc1ccc(F)cc1` as the compound, how does the “growth rescue (activation)” value read?
Answer: inactive: 21.9%

Question: Which “growth rescue (activation)” value does the source give for `COc1ccc(C=O)cc1COc1ccccc1F` here?
Answer: inactive: 13.9%

Question: Which “growth rescue (activation)” value does the source give for `COc1ccc(CC(=O)OCC(=O)NC2CCCC(C)C2C)cc1` (stereo unspecified) here?
Answer: inactive: 12%

Question: Which “growth rescue (activation)” value does the source give for `Cc1ccc(CN2CC(C(=O)Nc3nnc(SCc4c(Cl)cccc4Cl)s3)CC2=O)cc1` (stereo unspecified) here?
Answer: inactive: 1.44%

Question: Which “growth rescue (activation)” value does the source give for `O=C(NCc1cccc(C(F)(F)F)c1)c1ccc2sc([C@@H]3O[C@H](CO)[C@@H](O)[C@H]3O)nc2c1` here?
Answer: inactive: 15.2%

Question: With `Cc1ccccc1-c1cc2nc(NCCN3CCNC3=O)n(C)c(=O)c2s1` as the compound, how does the “growth rescue (activation)” value read?
Answer: inactive: -11.9%

Question: For `CC1(C(=O)CSc2nc3ccccc3s2)CCC(=O)O1` (stereo unspecified), which “growth rescue (activation)” value is on record?
Answer: inactive: 18.1%

Question: With `CCOC(=O)c1c(C)[nH]c(C2=NNC(=NC(C)COC)SC2)c1C` (stereo unspecified) as the compound, how does the “growth rescue (activation)” value read?
Answer: inactive: 12.3%

Question: With `CC1(C(=O)NCc2ccncc2)Cc2c(-c3cccc(C(F)(F)F)c3)ccnc2O1` (stereo unspecified) as the compound, how does the “growth rescue (activation)” value read?
Answer: inactive: 14.2%

Question: For `CC(C)c1nnc(NC(=O)c2nc(S(=O)(=O)Cc3ccc(F)cc3)ncc2Cl)s1`, which “growth rescue (activation)” value is on record?
Answer: inactive: 11.5%

Question: With `CC(Sc1ccc2ccccc2c1)C(=O)NC(N)=O` (stereo unspecified) as the compound, how does the “growth rescue (activation)” value read?
Answer: inactive: 12.4%

Question: With `COC(=O)c1ccc(CSc2nc3ccccc3c(=O)n2N)cc1` as the compound, how does the “growth rescue (activation)” value read?
Answer: inactive: 15.7%

Question: For `O=[N+]([O-])c1cccc(Nc2c3ccccc3nc3ccccc23)c1`, which “growth rescue (activation)” value is on record?
Answer: inactive: 24.7%

Question: For `CCCCCCCCCCn1c2c(c(=N)c3c1CCC3)CCC2`, which “growth rescue (activation)” value is on record?
Answer: inactive: -88.7%

Question: With `O=C(CC1C(=O)NCCN1Cc1ccc(-c2ccccc2)cc1)NCC1CCOCC1` (stereo unspecified) as the compound, how does the “growth rescue (activation)” value read?
Answer: inactive: 10.3%
